Experimental data: the RNAGym collection of RNA variant scans (doi:10.1073/pnas.2313332121)
This sample is rich in variants without activity.

B1: TPR 5TU (parent)
chain: GGAUCUUCUCGAUCUAACAAAAAAGACAAAUCUGCCACAAAGCUUGAGAGCAUCUUCGGAUGCAGAGGCGGCAGCCUUCGGUGGCGCGAUAGCGCCAACGUUCUCAACUAUGACACGCAAAACGCGUGCUCCGUUGAAUGGAGUUUAUCAUG

Variants of: B1
Experiment: polymerase ribozyme fitness, log enrichment relative to wild type (log ratio); higher = more active; in vitro selection for triplet polymerase activity
Method in brief: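 Mutant libraries for each subunit of a heterodimeric triplet polymerase ribozyme were made by PCR and then transcribed. Each library underwent one round of in vitro selection in triplicate: annealing with a biotinylated primer, the partner subunit and triplets, frozen incubation at −7 °C, gel excision of extended constructs, streptavidin-bead capture and RT-PCR. Input and output libraries were Illumina-sequenced, and only genotypes with ≥10 input reads and ≥1 read per output were kept. Fitness is the logarithm, base 2, of genotype enrichment over wild-type enrichment, computed from inverse-variance-weighted replicate averages.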

A3U C35A G68A G92A A97C C118U and A3U C35G C57A A64C G86U C116G G143A cannot be ordered by “polymerase ribozyme fitness (log ratio)” value: no more than -4.2 for the first, no more than -4.2 for the second.

A3U C36A C54A C87U and A3U C36A G42C C87A A89G G100C cannot be ordered by “polymerase ribozyme fitness (log ratio)” value: no more than -4.2 for the first, no more than -4.2 for the second.

A3U C36A U55A G92A C96G G126C U144C and A3U C38U U45C G92A U102A C108G C125A U134C cannot be ordered by “polymerase ribozyme fitness (log ratio)” value: no more than -4.2 for the first, no more than -4.2 for the second.

A3U C38U U53C C57A C95G C125A U134A and A3U C43G cannot be ordered by “polymerase ribozyme fitness (log ratio)” value: no more than -4.2 for the first, no more than -4.2 for the second.

A3U C43G C85G A91U C93G and A3U C43G C85U C99U A120C G128U A147U cannot be ordered by “polymerase ribozyme fitness (log ratio)” value: no more than -4.2 for the first, no more than -4.2 for the second.

First: A3U C51A G124C
Second: A3U C51U C95U
The “polymerase ribozyme fitness (log ratio)” value of the first is lower: -2.87 for the first, -1.09 for the second.

A3U C57A G58C G59C G86A C114U A120G U127A A147U and A3U C57A G86A U101G U102G C118U A150U cannot be ordered by “polymerase ribozyme fitness (log ratio)” value: no more than -4.2 for the first, no more than -4.2 for the second.

A3U C72G A91U and A3U C75U G92C A97U U101G A142G cannot be ordered by “polymerase ribozyme fitness (log ratio)” value: no more than -4.2 for the first, no more than -4.2 for the second.

A3U C76A C87U A113C U130A and A3U C87G C99G C118U A150C cannot be ordered by “polymerase ribozyme fitness (log ratio)” value: no more than -4.2 for the first, no more than -4.2 for the second.

Going from A3U C87U to A3U C93G, the “polymerase ribozyme fitness (log ratio)” value falls from -0.956 to -2.5.

Compared with A3U C93U, A3U C96A is higher in “polymerase ribozyme fitness (log ratio)” value: -1.81 for the first, -0.199 for the second.

Compared with A3U C99U, A3U C99U C103A U109C C114U U148C is lower in “polymerase ribozyme fitness (log ratio)” value: -0.307 for the first, no more than -4.2 for the second.

A3U G11A A12C A37C C87G U104G G117U U144G and A3U G11A C14G U53C C76G G117U cannot be ordered by “polymerase ribozyme fitness (log ratio)” value: no more than -4.2 for the first, no more than -4.2 for the second.

A3U G11C U44A G58C G62A G68A G94C and A3U G25U C63U G67A G83C A150G cannot be ordered by “polymerase ribozyme fitness (log ratio)” value: no more than -4.2 for the first, no more than -4.2 for the second.

A3U G34A G86A C93G G141U and A3U G46A G50U U56A G74A G84U U130A U144C C149U cannot be ordered by “polymerase ribozyme fitness (log ratio)” value: no more than -4.2 for the first, no more than -4.2 for the second.

A3U G46A U56A U61A U78G C99G and A3U G48C U61A A97U U135A cannot be ordered by “polymerase ribozyme fitness (log ratio)” value: no more than -4.2 for the first, no more than -4.2 for the second.

Going from A3U G58A C87G U101C A113U C131G to A3U G58A C96G, the “polymerase ribozyme fitness (log ratio)” value rises from no more than -4.2 to -1.09.

A3U G59A C99U U144C A150G and A3U G59A G88U C96U C118A A138G cannot be ordered by “polymerase ribozyme fitness (log ratio)” value: no more than -4.2 for the first, no more than -4.2 for the second.

First: A3U G59C
Second: A3U G59C C85U G126A
The “polymerase ribozyme fitness (log ratio)” value of the first is higher: -0.00695 for the first, -0.686 for the second.

A3U G68A and A3U G70C G83A A107G A115U A122G cannot be ordered by “polymerase ribozyme fitness (log ratio)” value: no more than -4.2 for the first, no more than -4.2 for the second.

Going from A3U G71C U111G to A3U G81C, the “polymerase ribozyme fitness (log ratio)” value rises from no more than -4.2 to -0.0386.

Going from A3U G83A to A3U G83A C87U U111G, the “polymerase ribozyme fitness (log ratio)” value falls from -1.47 to no more than -4.2.

Compared with A3U G84U, A3U G88A A89C A106U A107G U146G is lower in “polymerase ribozyme fitness (log ratio)” value: -2.4 for the first, no more than -4.2 for the second.

Going from A3U G92A G136C to A3U G94A, the “polymerase ribozyme fitness (log ratio)” value rises from -4 to -1.21.

A3U G133U U135G and A3U U4C A52C G67A G83U A122U A137U U148A cannot be ordered by “polymerase ribozyme fitness (log ratio)” value: no more than -4.2 for the first, no more than -4.2 for the second.

A3U U4C G136U U139G and A3U U6A C18U C35U U61A G62C G67A G128C U144C cannot be ordered by “polymerase ribozyme fitness (log ratio)” value: no more than -4.2 for the first, no more than -4.2 for the second.

A3U U6G C35G G50U U78G C79U G141U and A3U U7A A37U G67U A91C G143A cannot be ordered by “polymerase ribozyme fitness (log ratio)” value: no more than -4.2 for the first, no more than -4.2 for the second.

A3U U7C A16C U33G A89C G92U and A3U U7C U56A G58C A60C G70C G88A G94A A115U cannot be ordered by “polymerase ribozyme fitness (log ratio)” value: no more than -4.2 for the first, no more than -4.2 for the second.

A3U U7G A28G G80A C87A A97U U101G G117A U151A and A3U U7G C75G C85G cannot be ordered by “polymerase ribozyme fitness (log ratio)” value: no more than -4.2 for the first, no more than -4.2 for the second.

A3U U9A C57U G74A G124U A138G and A3U U9A G11C C35A A37G G50C U90G C95U U101G C116U cannot be ordered by “polymerase ribozyme fitness (log ratio)” value: no more than -4.2 for the first, no more than -4.2 for the second.

First: A3U U9C C85A G128C A137G A150U
Second: A3U U13C A41U C76U C123U
The “polymerase ribozyme fitness (log ratio)” value of the first is lower: no more than -4.2 for the first, -2.89 for the second.

A3U U13G A20U G74C and A3U U15G A19C A39C U44G U55A C57U A60G C63A G84A A110U A120C cannot be ordered by “polymerase ribozyme fitness (log ratio)” value: no more than -4.2 for the first, no more than -4.2 for the second.

A3U U44A G58C C85A C103U C118G A119U G136U A150U and A3U U44G A52G C79A C103A A121U cannot be ordered by “polymerase ribozyme fitness (log ratio)” value: no more than -4.2 for the first, no more than -4.2 for the second.

Compared with A3U U45A C96A, A3U U53A C54U G80C G92U G126A C131A is lower in “polymerase ribozyme fitness (log ratio)” value: -3.51 for the first, no more than -4.2 for the second.

A3U U53A C87A A106U and A3U U53A U82C C87G C96U C125G cannot be ordered by “polymerase ribozyme fitness (log ratio)” value: no more than -4.2 for the first, no more than -4.2 for the second.

Compared with A3U U55A, A3U U55A A66U G81C C96U G117A C118A A119G is lower in “polymerase ribozyme fitness (log ratio)” value: -0.84 for the first, no more than -4.2 for the second.

A3U U55A G59A G80C C87A U102C C118G and A3U U55C G58U C85A A107G G140C cannot be ordered by “polymerase ribozyme fitness (log ratio)” value: no more than -4.2 for the first, no more than -4.2 for the second.

A3U U56A A73G C85G G86A and A3U U61G G70U C75U C93U G140U cannot be ordered by “polymerase ribozyme fitness (log ratio)” value: no more than -4.2 for the first, no more than -4.2 for the second.

Compared with A3U U82G, U4A A12G A20U U44G A52G U55A G94C is lower in “polymerase ribozyme fitness (log ratio)” value: -0.249 for the first, no more than -4.2 for the second.

Compared with U4A A12U G80U G81U G92C, U4A A12U G81C C87G C93G A98U C118U G133C is lower in “polymerase ribozyme fitness (log ratio)” value: -0.513 for the first, no more than -4.2 for the second.

Compared with U4A A12U G84A A89G, U4A A16G A37U A91G G124U is lower in “polymerase ribozyme fitness (log ratio)” value: -0.965 for the first, no more than -4.2 for the second.

With U4A A16U A52U A60G G84U U102A C125A U135G the “polymerase ribozyme fitness (log ratio)” value was no more than -4.2.
